The subject of the test is HIV-1 NL4-3, RT 4XAZT/L100I. It counts as cell-based.

Consider one compound from US6569897B1, “Alkenyldiarylmethane non-nucleoside HIV-1 reverse transcriptase inhibitors” (priority 1998, dated 2003).

The EC50 is the concentration that produces a half-maximal response. Lower therefore signals higher potency in that assay. On to `COC(=O)CCCC=C(c1cc(Cl)c(OC)c(C(=O)OC)c1)c1cc(Cl)c(OC)c(C(=O)OC)c1` [Compound 22, Methyl 3′,3″-Dichloro-4′,4″-dimethoxy-5,5″-bis(methoxycarbonyl)-6,6-diphenylhexenoate], for which the half-maximal effective concentration (EC50) came to 0.27 µM. In other words, the sub-micromolar range.
